Measured values published in PubChem BioAssay AID485313 (National Center for Advancing Translational Sciences (NCATS), 2010).
Out of some 320,000 compounds screened, about 7,600 (2.4%) were called active. The inconclusive results got no clear call from the source; some entries with a clear call stand among them for comparison. Calls come from the whole dose curve; as a rule, active = well fitted activation curve with a large enough effect; inconclusive = small, poorly fitted or top-dose-only effect; inactive = no such curve, though single readings can be large or run the other way. A potency beside an inconclusive call is a rough fit, not a confirmed value.

Experiment: qHTS Assay for NPC1 Promoter Activators; note: nearly all actives have a fitted effect of over 60% in size;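 for activation: reporter is driven by a mutant NPC1 promoter; % of control where 0% means no effect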
Conditions: Huh7 NPC1 promoter luciferase reporter, 24 h; series mostly up to 9.22 µM; activation: at the top concentration
In short: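 Compounds in DMSO were transferred onto Huh7 NPC1-luciferase reporter cells pre-incubated 2 h; after 24 h at 37 °C, Amplite reagent was dispensed and luminescence recorded 10 min later.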
Potency is the fitted concentration of half-maximal effect; tags give direction and shape of the fitted curve.

activation, inactive:
CC(=O)c1ccc(OCCCC(=O)NCCc2ccccc2)cc1 1.78%, COc1ccccc1N1CCN(C(=O)NCc2cccc(C(F)(F)F)c2)CC1 -33.3%, Cc1onc(-c2c(F)cccc2Cl)c1C(=O)Nc1nc2ccccc2[nH]1 21.3%, Cc1ccccc1C(=O)c1c[nH]c(C(=O)N2CCN(c3ccccc3F)CC2)c1 -2.35%, CCOC(=O)Cc1c(C)nc(Cc2ccc(OC(C)C)cc2)[nH]c1=O -2.32%, COc1ccc(C)cc1NC(=O)NNC(=O)C(C)Oc1ccc(F)cc1Cl (centres undefined) -2.18%, O=C(NCCCO)c1nc2ccccc2s1 9.37%, O=C(O)c1coc2ccccc12 -5.43%, O=c1oc(-c2cccs2)nc2sc3c(c12)CCC3 18.3%, COc1ccc(NC(=O)CS(=O)(=O)c2cn(CC(=O)N(C(C)C)C(C)C)c3ccccc23)c(OC)c1 1.62%, COc1ccccc1CNC(=O)CS(=O)(=O)c1ccc(C)cc1 4.75%, Cc1ccc2nc(Cc3ccc(N)cc3)[nH]c2c1 14.3%, CC(=O)Nc1cc(C(=O)NCCN2CCN(Cc3ccccc3)CC2)ccc1Sc1ccc(C)cc1 -8.53%

Potency, active:
Cn1nccc1C(=O)N/N=C/c1ccccc1[N+](=O)[O-] 2.51 µM, COc1ccccc1CNC(=O)COc1ccc(C)cc1 3.16 µM, O=C(c1ccco1)N1CCN(c2ncnc3c(-c4ccccc4)nsc23)CC1 3.16 µM, O=C(Nc1ccc(Cl)cn1)c1ccc2c(Cl)c3c(nc2c1)CCC3 0.316 µM, Cc1cccc(NC(=S)NNC(=O)c2csc(C(C)C)c2)c1 2.51 µM

Potency, inconclusive:
O=C(COc1cccc2cccnc12)Nc1nccs1 2.51 µM [activator, partial curve], Cc1ccc(O)c(N=Nc2ccc(S(=O)(=O)N3CCCC3)cc2)c1 3.98 µM [activator, single point], CC(=O)c1cccc(NC(=O)c2cc(-c3ccc(C)cc3)on2)c1 2 µM [activator, partial curve], Cc1nc(-c2ccc(Cl)cc2)sc1C(=O)O 2.51 µM [activator, partial curve], Cc1ccc(N=c2c([N+](=O)[O-])nn(-c3ccc4c(c3)OCCO4)n2O)c(Cl)c1 2.82 µM [activator, partial curve], O=C(/C=C/Nc1ccc(F)c(Cl)c1)c1ccccc1 3.55 µM [activator, partial curve], Cc1cc(C(=O)CSc2cccc[n+]2[O-])c(C)n1-c1ccc(OC(F)F)cc1 2.51 µM [activator, partial curve], Cc1ccc(Cl)c2c(N=Nc3ccccc3)c(O)[nH]c12 3.98 µM [activator, single point], Cc1ccc(OCc2cc(C(=O)N(C)CCc3ccccn3)no2)cc1C 3.98 µM [activator, partial curve], CCNC(=O)CSc1nc(-c2ccccc2)cs1 3.98 µM [activator, single point], Nc1c(C(=O)Nc2ccccc2)sc2ncc([N+](=O)[O-])cc12 5.62 µM [activator, single point], NNC(=O)c1ccc(COc2ccc3ccccc3c2)o1 2.82 µM [activator, partial curve], N#Cc1ccc(OCc2nnc(-c3ccc([N+](=O)[O-])cc3)o2)cc1 3.16 µM [activator, single point], NS(=O)(=O)c1cccnc1Nc1cccc(Cl)c1 1 µM [activator, single point], CC1=CCC(/C=N\Nc2nnc3c(n2)[nH]c2ccccc23)CC1 (centres undefined) 5.62 µM [activator, single point], COc1cc(N2CCCC2)c(OC)cc1/C=c1/sc2nc3ccccc3n2c1=O 3.16 µM [activator, single point], Clc1ccc(N2CCN(c3cnc4ccccc4n3)CC2)cc1 3.98 µM [activator, single point], Cc1ccc(NC(=O)c2ccnc(C(C)(C)C)c2)cc1 3.16 µM [activator, single point], COC(=O)CCNC(=O)c1ccc2nc(Cc3ccc(OC)c(OC)c3)oc2c1 3.55 µM [activator, single point], CNC(=O)c1ccc(-c2ccc(F)cc2)s1 2.51 µM [activator, partial curve], O=C(CCC(F)(F)F)N1CCC(CO)(CCc2ccccc2)CC1 5.62 µM [activator, single point]
